In all, about 48,000 compounds went through this assay and about 450 (0.94%) were called active. Another 19% or so got no clear call; they are omitted. The call rests on the fitted dose curve; in most records, active means well fitted inhibition curve with a large enough effect; inconclusive means small, poorly fitted or top-dose-only effect; inactive means no such curve, though single readings can be large or run the other way. The list shows a part of the results.
Potency means the concentration at half of the fitted maximal effect.

The nature of the experiment: Primary qHTS for Identification of Small Molecule Inhibitors of Huntingtin Promoter Activity. Further: nearly all actives have a fitted effect of over 50% in size. The note with it: HEK293 HTT promoter firefly luciferase reporter (activity 0% = vehicle and -100% = no light), 24 h; series mostly up to 57.5 µM; activity change, negative = inhibition: at the top concentration. The essentials: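 Firefly luciferase readout (Dual-Glo, 10 min RT) after 24 h, 37 °C compound exposure (final up to 57.5 uM) of HEK293 reporter cells cultured 24 h beforehand; PTC124 at 50 uM final as control inhibitor; activity scaled vehicle 0%, zero RLU -100%.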
Take `N#Cc1cccc(NC(=O)c2cc3c(s2)-c2ccc(Cl)cc2SC3)c1`: the “activity change, negative = inhibition” value was inactive: -18.3%. As for `CCOc1ccc(C(=O)Nc2cc(-c3nc4ccccc4s3)ccc2OC)cc1`, the “activity change, negative = inhibition” value was inactive: -35.8%. For `CCc1nn(CC(=O)NCc2ccccc2Cl)c(=O)c2cccn12`, the “activity change, negative = inhibition” value was inactive: -2.86%. On to `Cc1cc(C)cc(NC(=O)c2cccc3c2C(=O)N(C2CCCCC2)C3)c1`, for which the “activity change, negative = inhibition” value was inactive: 8.62%. Same read-out and setting: next, `O=C(COc1ccccc1[N+](=O)[O-])Nc1ccc(-c2nc3ccccc3s2)cc1`: inactive: 44.4%; `Cc1nc(SCC(=O)Nc2ccccc2F)[nH]c(=O)c1Cc1ccccc1`: inactive: -0.605%; `O=S(=O)(c1ccccc1)c1nc(-c2cccs2)oc1SCc1ccc(F)cc1`: inactive: -13.4%.

In the case of `COc1ccc(S(=O)(=O)c2cc(NS(=O)(=O)c3ccc(Cl)cc3)c(C)c(C)c2O)cc1`, the “activity change, negative = inhibition” value is inactive: -25.7%. With `COc1ccc(NC(=O)c2cnc[nH]2)cc1`, the “activity change, negative = inhibition” value is inactive: 66%.

`COc1ccc(-c2cn3nc(SCC(=O)Nc4ccc(C)c(Cl)c4)ccc3n2)cc1`: the “activity change, negative = inhibition” value is inactive: 28.8%. On the same count and under the same terms, next, `Cc1ccc(NC(c2ccc(Cl)cc2)c2nnc(-c3cccc(F)c3)o2)cc1C` (stereo not drawn): inactive: -6.03%; `COC(=O)CCNC(=O)N1CCN(c2nnc(C)c3c(C)n(-c4ccc(Cl)cc4)nc23)CC1`: inactive: -2.82%; `COc1ccc(OC)c(CCNC(=O)c2c3c(nc4ccccc24)C(=O)N(C2CCCCC2)C3)c1`: inactive: -26.6%. Still for that read-out and setting: the result for `Cc1cc(C)c(NC(=O)COc2ccc3c(C)cc(=O)oc3c2)c(C)c1` reads inactive: -28.3% [at 11.5 µM]. For `O=C(CSc1nc2c([nH]c3ccccc32)c(=O)n1-c1ccc(Cl)cc1)N1CCCC1`, the “activity change, negative = inhibition” value is inactive: -2.91%. Same read-out and setting: the result for `CCOC(=O)Cn1c(=O)oc2cc(S(=O)(=O)N3CCN(c4ccc(C(C)=O)cc4)CC3)ccc21` reads inactive: -31.3%. Turning to `CCOc1ccc(S(=O)(=O)c2cn(Cc3cc(C)ccc3C)c3ccc(OCC)cc3c2=O)cc1`, the “activity change, negative = inhibition” value was inactive: -13.3%. On the same count and under the same terms, next, `COc1cccc(Nc2nc3cc(Cl)c(Cl)cc3nc2-n2nc(C)cc2C)c1`: inactive: -4.24%; `COc1ccc(NC(=O)Cn2nc(C)c3nn(-c4ccc(Cl)cc4)c(C)c3c2=O)cc1`: inactive: -26.7%; `CCCOC(=O)c1ccc(Cn2nnc3sc4c(c3c2=O)CCC(C)C4)cc1` (stereo not drawn): inactive: 7.4%. Still for that read-out and setting: the result for `COc1ccccc1CNC(=O)c1cnc(N2CCCC2)nc1C` reads inactive: -9.99%.

For the compound `CC1CCN(c2oc(/C=C/c3ccc(F)cc3)nc2C#N)CC1`, the “activity change, negative = inhibition” value is inactive: -9.99%. With `CCOc1ccc(-c2nc(Cn3c(=O)cc(C)c4c(C)nn(-c5ccc(C)cc5)c43)c(C)o2)cc1`, the “activity change, negative = inhibition” value was inactive: 15.7%. Still for that read-out and setting: next, `COc1ccccc1NC(=O)C1=C(C)Nc2nc(SCc3ccccc3)nn2C1c1cccnc1` (stereo not drawn): inactive: -14.1%; `COc1ccc(CCNC(=O)CCn2c(=O)c3ccccc3n(CC(=O)Nc3ccc(C)cc3C)c2=O)cc1OC`: inactive: -10.6%; `Cn1c(=O)c2c(c3ccccc31)OC(=O)CC2c1cccc(F)c1` (stereo not drawn): inactive: -18.3%. Still for that read-out and setting: next, `O=C(C1CCC(Cn2c(=O)c3sccc3n(Cc3ccccc3F)c2=O)CC1)N1CCCCC1` (stereo not drawn): inactive: -17.1%; `CCCCNC(=O)C1CCN(S(=O)(=O)c2ccc3c(ccn3CC)c2)CC1`: inactive: -10.5%. Consider `CC(C)NC(=O)C1CCN(C(=O)c2cc3sccc3n2Cc2ccc(Cl)cc2)CC1`, for which the Potency is active: 8.91 µM.

Regarding `Cc1cc(C)c(NC(=O)c2ncoc2-c2ccco2)c(C)c1`, the “activity change, negative = inhibition” value is inactive: -13.4%. On the same count and under the same terms, the result for `CC(=O)N1C[C@H](O)C[C@H]1C(=O)O` reads inactive: 3.93%. On the same count and under the same terms, the result for `O=S(=O)(NCCc1csc2nc(-c3ccccc3)nn12)c1ccc(Cl)s1` reads inactive: -20%; that for `COc1ccc2c(CNC3CCCCCC3)c(C(=O)O)n(Cc3cccc(F)c3)c2c1`, inactive: -14.2%; that for `O=S(=O)(O)c1ccc2nc(-c3ccccc3)[nH]c2c1`, inactive: 8.18%. On the same count and under the same terms, the result for `CCN(CC)CCSc1nnc2c3cc(F)ccc3n(C)c2n1` reads inactive: -8.64%; that for `CCOC(=O)c1c(C)[nH]c(CCC(=O)Nc2ccc(Cl)cc2C)c1C`, inactive: -4.97%; that for `COc1ccc(-c2noc(CNS(=O)(=O)c3ccc(Br)cc3)n2)cc1OC`, inactive: -30%. On to `Cc1ccc(-c2noc(CN(C(=O)COc3cc(C)cc(C)c3C)C(C)C)n2)cc1`, for which the “activity change, negative = inhibition” value is inactive: -18.7%.

As to `COc1ccc(CCNC(=O)c2cnc3sc(N4CCCC4)nn3c2=O)cc1OC`, the “activity change, negative = inhibition” value was inactive: -16.4%.

Turning to `CN(C(=O)c1cc2c(s1)-c1ccc(Cl)cc1SC2)c1cccc(C(F)(F)F)c1`, the “activity change, negative = inhibition” value was inactive: 10.2%. Same read-out and setting: next, `O=C(CN1C(=O)COc2ccc(S(=O)(=O)N3CCCCC3)cc21)NCc1ccc(Cl)cc1`: inactive: -22.2%; `Cc1ccc(CNC(=O)c2nnn(CC(=O)Nc3cc(C)ccc3C)c2N)cc1`: inactive: -3.2%. On the same count and under the same terms, next, `CSCCC(NS(=O)(=O)c1ccc2c(c1)oc(=O)n2C)C(=O)N1CCN(c2cccc(Cl)c2)CC1` (stereo not drawn): inactive: -25%; `CCOc1ccc(-c2cc(-c3nc(-c4cc(OC)c(OC)c(OC)c4)no3)[nH]n2)cc1`: inactive: -26.1%. On the same count and under the same terms, next, `Fc1ccc(-c2noc3ncnc(NCC4CCN(Cc5ccc(Cl)cc5)CC4)c23)cc1`: inactive: -27.7%; `COc1cc(NC(=O)c2cc(C)nc3c2c(C)nn3-c2ccccc2Cl)cc(OC)c1`: inactive: -24.6%. In the case of `CO[C@@]1(NC(=O)CSC[C@@H](N)C(=O)O)C(=O)N2C(C(=O)O)=C(CSc3nnnn3C)CS[C@@H]21`, the “activity change, negative = inhibition” value was inactive: 6.52%. On the same count and under the same terms, the result for `Cc1ccc2cc3c(N)nn(C(=O)c4cccc(F)c4)c3nc2c1` reads inactive: 16.9%.

Values taken from PubChem BioAssay AID1508623 (National Center for Advancing Translational Sciences (NCATS), 2021).
